According to the supplement of paper PMC7125110:
± gives the standard error. Variants at the floor of the assay are shown more often than the library holds them.

B1: glmS ribozyme (parent)
chain: AUAAAAGCGCCAGAACUACAGAAAUGUAGUUGACGAGGAGGAGGUUUAUCGAAUUUUCGGCGGAUGCCUCCAAA

Experiments:
Conditions in all cases: with glucosamine-6-phosphate
glucosamine-6-phosphate [1] = variants of: B1; experiment: self-cleavage kobs at 40 uM GlcN6P; higher = faster cleavage; RNA array
Summary of the method: (§1)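 Weighted Michaelis–Menten fits across concentrations supplied kcat and KM, based on kobs from one- or two-exponential decay fits to normalised per-tile medians. The data came from barcoded ribozyme variants transcribed in situ by E. coli RNA polymerase on sequenced MiSeq chips and tracked at 37 °C by a hybridised Cy3 probe. Glucosamine-6-phosphate (40 μM to 10 mM) in HEPES/KCl/Mg(OAc)2 buffer was flowed in.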

glucosamine-6-phosphate [2] = variants of: B1; experiment: self-cleavage kobs at 640 uM GlcN6P; higher = faster cleavage; RNA array
Summary of the method: as §1

glucosamine-6-phosphate [3] = variants of: B1; experiment: self-cleavage kobs at 160 uM GlcN6P; higher = faster cleavage; RNA array
Summary of the method: as §1

glucosamine-6-phosphate [4] = variants of: B1; experiment: self-cleavage kobs at 2500 uM GlcN6P; higher = faster cleavage; RNA array
Summary of the method: as §1

glucosamine-6-phosphate [5] = variants of: B1; experiment: self-cleavage kobs at 10000 uM GlcN6P; higher = faster cleavage; RNA array
Summary of the method: as §1

Variant | self-cleavage kobs at 40 uM GlcN6P (glucosamine-6-phosphate [1]) | self-cleavage kobs at 640 uM GlcN6P (glucosamine-6-phosphate [2]) | self-cleavage kobs at 160 uM GlcN6P (glucosamine-6-phosphate [3]) | self-cleavage kobs at 2500 uM GlcN6P (glucosamine-6-phosphate [4]) | self-cleavage kobs at 10000 uM GlcN6P (glucosamine-6-phosphate [5])
G43C G66U | < 1e-05 s⁻¹ | < 1e-05 s⁻¹ | < 1e-05 s⁻¹ | < 1e-05 s⁻¹ | 
G43U G59C C67G | < 1e-05 s⁻¹ |  |  | < 1e-05 s⁻¹ | 
U45C A52U | < 1e-05 s⁻¹ |  |  |  | 
U49A C50G C68G | 9.07e-05 ± 3.4e-05 s⁻¹ |  |  |  | 
C50G G51C | < 1e-05 s⁻¹ |  | < 1e-05 s⁻¹ | < 1e-05 s⁻¹ | < 1e-05 s⁻¹
A48U A52U C67A | < 1e-05 s⁻¹ |  |  |  | < 1e-05 s⁻¹
G44C G60A | < 1e-05 s⁻¹ | < 1e-05 s⁻¹ | < 1e-05 s⁻¹ | < 1e-05 s⁻¹ | < 1e-05 s⁻¹
A53C G62A | < 1e-05 s⁻¹ |  |  |  | 
U45G C50G | < 1e-05 s⁻¹ | < 1e-05 s⁻¹ | < 1e-05 s⁻¹ | < 1e-05 s⁻¹ | < 1e-05 s⁻¹
U46C C71U | 0.000102 ± 1.5e-05 s⁻¹ |  |  |  | 
G43U U65C | < 1e-05 s⁻¹ | < 1e-05 s⁻¹ | < 1e-05 s⁻¹ | < 1e-05 s⁻¹ | < 1e-05 s⁻¹
U47G G62A U65G | < 1e-05 s⁻¹ |  |  | < 1e-05 s⁻¹ | < 1e-05 s⁻¹
A52C C61G | < 1e-05 s⁻¹ | < 1e-05 s⁻¹ |  |  | 
A48G C67U | < 1e-05 s⁻¹ |  |  |  | 
U46G U65A C70U | 8.31e-05 ± 1.9e-05 s⁻¹ |  |  |  | 0.00117 ± 0.00024 s⁻¹
U54A G59A | < 1e-05 s⁻¹ |  |  |  | 
G51A U55A | < 1e-05 s⁻¹ | < 1e-05 s⁻¹ | < 1e-05 s⁻¹ |  | 
U47A G60C C61A | < 1e-05 s⁻¹ |  |  |  | < 1e-05 s⁻¹
U56A G66A | 0.000167 ± 1.7e-05 s⁻¹ | 0.00117 ± 0.00021 s⁻¹ | 0.00039 ± 6.4e-05 s⁻¹ | 0.00253 ± 0.00043 s⁻¹ | 0.00718 ± 0.0011 s⁻¹
A52C C67G | < 1e-05 s⁻¹ |  |  |  | 
A48C G60U | < 1e-05 s⁻¹ | < 1e-05 s⁻¹ | < 1e-05 s⁻¹ | < 1e-05 s⁻¹ | < 1e-05 s⁻¹
A48C G60A | < 1e-05 s⁻¹ | < 1e-05 s⁻¹ |  | < 1e-05 s⁻¹ | < 1e-05 s⁻¹
C50U G59U | < 1e-05 s⁻¹ | < 1e-05 s⁻¹ |  |  | < 1e-05 s⁻¹
C50U G59C | < 1e-05 s⁻¹ | < 1e-05 s⁻¹ | < 1e-05 s⁻¹ | < 1e-05 s⁻¹ | < 1e-05 s⁻¹

Variant | self-cleavage kobs at 40 uM GlcN6P (glucosamine-6-phosphate [1]) | self-cleavage kobs at 640 uM GlcN6P (glucosamine-6-phosphate [2]) | self-cleavage kobs at 160 uM GlcN6P (glucosamine-6-phosphate [3]) | self-cleavage kobs at 2500 uM GlcN6P (glucosamine-6-phosphate [4]) | self-cleavage kobs at 10000 uM GlcN6P (glucosamine-6-phosphate [5])
G60C A64U | < 1e-05 s⁻¹ |  |  |  | 
U45C G59C | < 1e-05 s⁻¹ | < 1e-05 s⁻¹ | < 1e-05 s⁻¹ | < 1e-05 s⁻¹ | < 1e-05 s⁻¹
U45C G59A | < 1e-05 s⁻¹ | < 1e-05 s⁻¹ | < 1e-05 s⁻¹ |  | 
G51A G63A | < 1e-05 s⁻¹ |  | < 1e-05 s⁻¹ | < 1e-05 s⁻¹ | < 1e-05 s⁻¹
G60C C71U | < 1e-05 s⁻¹ | < 1e-05 s⁻¹ | < 1e-05 s⁻¹ |  | 
G60A C71U | < 1e-05 s⁻¹ | < 1e-05 s⁻¹ |  |  | 
C50U G60A | < 1e-05 s⁻¹ |  |  |  | < 1e-05 s⁻¹
U47C C50A | < 1e-05 s⁻¹ |  |  |  | 
U46G C61G | < 1e-05 s⁻¹ | < 1e-05 s⁻¹ | < 1e-05 s⁻¹ |  | 
A52C U55A | < 1e-05 s⁻¹ |  |  |  | 
U54C C71A | 0.000112 ± 1.4e-05 s⁻¹ | 0.00133 ± 0.00019 s⁻¹ | 0.000296 ± 4.1e-05 s⁻¹ | 0.00192 ± 0.00026 s⁻¹ | 0.0039 ± 0.00049 s⁻¹
A52U U54G | < 1e-05 s⁻¹ |  |  |  | 
A53G U54C | 0.000508 ± 7.8e-05 s⁻¹ |  |  |  | 
G60C G63U | < 1e-05 s⁻¹ | < 1e-05 s⁻¹ | < 1e-05 s⁻¹ |  | < 1e-05 s⁻¹
G59U G66A | < 1e-05 s⁻¹ |  | < 1e-05 s⁻¹ |  | 
C58U G59C U65A C70U | < 1e-05 s⁻¹ |  |  |  | 
U46G U49C | < 1e-05 s⁻¹ | < 1e-05 s⁻¹ | < 1e-05 s⁻¹ | < 1e-05 s⁻¹ | < 1e-05 s⁻¹
U46G U49G | < 1e-05 s⁻¹ |  |  | 8.04e-05 ± 1.8e-05 s⁻¹ | 7.66e-05 ± 1.7e-05 s⁻¹
G44A U69G | < 1e-05 s⁻¹ |  |  |  | 
G44U U56A C68G | < 1e-05 s⁻¹ |  |  |  | 
U54A C67U | 0.000285 ± 9.7e-05 s⁻¹ | 0.00116 ± 0.00032 s⁻¹ | 0.000312 ± 9.1e-05 s⁻¹ | 0.00976 ± 0.0027 s⁻¹ | 0.00584 ± 0.0013 s⁻¹
C50A G62U C71U | < 1e-05 s⁻¹ |  |  |  | 
G43U C71U | < 1e-05 s⁻¹ |  | < 1e-05 s⁻¹ |  | 
U45C A53U | 4.26e-05 ± 1.2e-05 s⁻¹ | 0.00031 ± 5e-05 s⁻¹ | 0.000117 ± 2.5e-05 s⁻¹ | 0.00109 ± 0.00022 s⁻¹ | 0.00199 ± 0.00035 s⁻¹
